Reference: paper PMC9911399, “Two distinct binding modes provide the RNA-binding protein RbFox with extraordinary sequence specificity”
Numbering of substitutions follows the chain as printed; changes in the protein carry UniProt numbers. The list shows a part of the results.

T1: RBFOX1 RRM RbFoxmut (Fox-RRM*) (Homo sapiens, UniProt Q9NWB1 109-208, R118D;E147R;N151S;E152T)
T1 sequence: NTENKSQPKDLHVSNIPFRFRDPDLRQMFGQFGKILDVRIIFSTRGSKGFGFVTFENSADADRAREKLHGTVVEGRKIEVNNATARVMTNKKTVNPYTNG

B1: AAGUGCG (DNA:RNA)
RNA: GGGAGACCGGAAUUCAGAUUGUCCAAGUGCGUUAAAUCCCGUCGUAGCCACCA
DNA 1: CAATCTGAATTCCGGTCTCCC
DNA 2: TGGTGGCTACGACGGGATT
B2: ACCAGCC (DNA:RNA)
RNA: B1 RNA with A26C, G27C, U28A, G31C
DNA 1: CAATCTGAATTCCGGTCTCCC
DNA 2: TGGTGGCTACGACGGGATT
B3: CGAGUAC (DNA:RNA)
RNA: GGGAGACCGGAAUUCAGAUUGUCCCGAGUACUUAAAUCCCGUCGUAGCCACCA
DNA 1: CAATCTGAATTCCGGTCTCCC
DNA 2: TGGTGGCTACGACGGGATT
B4: CAGAUAC (DNA:RNA)
RNA: B3 RNA with G26A, A27G, G28A
DNA 1: CAATCTGAATTCCGGTCTCCC
DNA 2: TGGTGGCTACGACGGGATT
B5: UCUGCAU (DNA:RNA)
RNA: B3 RNA with C25U, G26C, A27U, U29C, C31U
DNA 1: CAATCTGAATTCCGGTCTCCC
DNA 2: TGGTGGCTACGACGGGATT
B6: GGGUAUU (DNA:RNA)
RNA: B1 RNA with A25G, A26G, G29A, C30U, G31U
DNA 1: CAATCTGAATTCCGGTCTCCC
DNA 2: TGGTGGCTACGACGGGATT
B7: GACAUAG (DNA:RNA)
RNA: B1 RNA with A25G, G27C, U28A, G29U, C30A
DNA 1: CAATCTGAATTCCGGTCTCCC
DNA 2: TGGTGGCTACGACGGGATT
B8: GAUAGGG (DNA:RNA)
RNA: B1 RNA with A25G, G27U, U28A, C30G
DNA 1: CAATCTGAATTCCGGTCTCCC
DNA 2: TGGTGGCTACGACGGGATT
B9: UUGCACC (DNA:RNA)
RNA: B1 RNA with A25U, A26U, U28C, G29A, G31C
DNA 1: CAATCTGAATTCCGGTCTCCC
DNA 2: TGGTGGCTACGACGGGATT
B10: AGCGAGC (DNA:RNA)
RNA: B3 RNA with C25A, A27C, U29A, A30G
DNA 1: CAATCTGAATTCCGGTCTCCC
DNA 2: TGGTGGCTACGACGGGATT
B11: CCAUUGG (DNA:RNA)
RNA: B3 RNA with G26C, G28U, A30G, C31G
DNA 1: CAATCTGAATTCCGGTCTCCC
DNA 2: TGGTGGCTACGACGGGATT
B12: GUGAAUA (DNA:RNA)
RNA: B1 RNA with A25G, A26U, U28A, G29A, C30U, G31A
DNA 1: CAATCTGAATTCCGGTCTCCC
DNA 2: TGGTGGCTACGACGGGATT
B13: GUACCGG (DNA:RNA)
RNA: B1 RNA with A25G, A26U, G27A, U28C, G29C, C30G
DNA 1: CAATCTGAATTCCGGTCTCCC
DNA 2: TGGTGGCTACGACGGGATT
B14: GACUCCA (DNA:RNA)
RNA: B1 RNA with A25G, G27C, G29C, G31A
DNA 1: CAATCTGAATTCCGGTCTCCC
DNA 2: TGGTGGCTACGACGGGATT
B15: UCGUGCG (DNA:RNA)
RNA: B1 RNA with A25U, A26C
DNA 1: CAATCTGAATTCCGGTCTCCC
DNA 2: TGGTGGCTACGACGGGATT
B16: AGCUUUA (DNA:RNA)
RNA: B1 RNA with A26G, G27C, G29U, C30U, G31A
DNA 1: CAATCTGAATTCCGGTCTCCC
DNA 2: TGGTGGCTACGACGGGATT
B17: UCCCAAG (DNA:RNA)
RNA: B1 RNA with A25U, A26C, G27C, U28C, G29A, C30A
DNA 1: CAATCTGAATTCCGGTCTCCC
DNA 2: TGGTGGCTACGACGGGATT
B18: AGCAGGG (DNA:RNA)
RNA: B1 RNA with A26G, G27C, U28A, C30G
DNA 1: CAATCTGAATTCCGGTCTCCC
DNA 2: TGGTGGCTACGACGGGATT
B19: CAUUGUU (DNA:RNA)
RNA: B1 RNA with A25C, G27U, C30U, G31U
DNA 1: CAATCTGAATTCCGGTCTCCC
DNA 2: TGGTGGCTACGACGGGATT
B20: CAGCACG (DNA:RNA)
RNA: B1 RNA with A25C, U28C, G29A
DNA 1: CAATCTGAATTCCGGTCTCCC
DNA 2: TGGTGGCTACGACGGGATT

What follows are binders tested against T1, RBFOX1 RRM RbFoxmut (Fox-RRM*) (assay: EMSA; HiTS-Eq, 1 nM pool, 10 min; buffer printed only for the single-RNA assays: 10 mM Tris pH 7.5, 150 mM NaCl, 3.4 mM EDTA, 0.001% NP-40, 30 C). Conditions: tags: His6 N-terminal (pET28a); label: 5' 32P.
Outline: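 A pool of RNA with 7 randomized nucleotides, 5′-radiolabelled and with DNA-annealed flanks, was equilibrated at 1 nM for 10 min in 50 µL with purified RbFox RRM, wild type or mutant, across increasing protein concentrations. Free RNA was separated by 8% native PAGE, excised, reverse-transcribed, barcoded by PCR and sequenced. Relative association constants were obtained from read-count changes of each RNA species versus the control reaction and normalised to the cognate motif.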

| Binder | binding signal |
| --- | --- |
| B1 | 0.165 KA relative to UGCAUGU |
| B2 | 0.0795 KA relative to UGCAUGU |
| B3 | 0.0919 KA relative to UGCAUGU |
| B4 | 0.101 KA relative to UGCAUGU |
| B5 | 0.119 KA relative to UGCAUGU |
| B6 | 0.105 KA relative to UGCAUGU |
| B7 | 0.0929 KA relative to UGCAUGU |
| B8 | 0.0622 KA relative to UGCAUGU |
| B9 | 0.181 KA relative to UGCAUGU |
| B10 | 0.0799 KA relative to UGCAUGU |
| B11 | 0.0979 KA relative to UGCAUGU |
| B12 | 0.191 KA relative to UGCAUGU |
| B13 | 0.0779 KA relative to UGCAUGU |
| B14 | 0.0973 KA relative to UGCAUGU |
| B15 | 0.147 KA relative to UGCAUGU |
| B16 | 0.103 KA relative to UGCAUGU |
| B17 | 0.098 KA relative to UGCAUGU |
| B18 | 0.0897 KA relative to UGCAUGU |
| B19 | 0.106 KA relative to UGCAUGU |
| B20 | 0.192 KA relative to UGCAUGU |
